Measured values reported in the supplement of paper PMC8728848.
The list shows a part of the results.

Tests used:
Experiment in all cases: glycan array binding signal (z-score within array); higher = stronger binding
Conditions in all cases: glycan notation: IUPAC condensed, linker removed; mutation: R82H, R255H
Gal(b1-3)GalNAc(b1-3)Gal = molecular target: Gal(b1-3)GalNAc(b1-3)Gal
Summary of the method: (§1)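 Columns mapping to the same glycan were averaged after glycan names were converted to IUPAC-condensed notation. The data come from 3228 arrays in the Consortium for Functional Glycomics database, limited to those with an available protein sequence. Binding is reported as a within-array Z-score averaged across arrays of one protein sequence and across linkers.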

[1] = molecular target: Gal(b1-3)GalNAc(b1-3)Gal(a1-4)Gal(b1-4)Glc
Summary of the method: as §1

[2] = molecular target: Gal(b1-3)GalNAc(b1-4)Gal(b1-4)Glc
Summary of the method: as §1

[3] = molecular target: Gal(b1-3)GalNAc(b1-4)[Neu5Ac(a2-3)]Gal(b1-4)Glc
Summary of the method: as §1

Gal(b1-3)GlcNAc = molecular target: Gal(b1-3)GlcNAc
Summary of the method: as §1

[4] = molecular target: Gal(b1-3)GlcNAc(a1-3)Gal(b1-4)GlcNAc
Summary of the method: as §1

[5] = molecular target: Gal(b1-3)GlcNAc(a1-6)Gal(b1-4)GlcNAc
Summary of the method: as §1

Gal(b1-3)GlcNAc(b1-2)Man = molecular target: Gal(b1-3)GlcNAc(b1-2)Man
Summary of the method: as §1

[6] = molecular target: Gal(b1-3)GlcNAc(b1-2)Man(a1-3)[Gal(b1-3)GlcNAc(b1-2)Man(a1-6)]Man(b1-4)GlcNAc(b1-4)GlcNAc
Summary of the method: as §1

[7] = molecular target: Gal(b1-3)GlcNAc(b1-2)Man(a1-3)[Gal(b1-3)GlcNAc(b1-2)Man(a1-6)]Man(b1-4)GlcNAc(b1-4)[Fuc(a1-6)]GlcNAc
Summary of the method: as §1

[8] = molecular target: Gal(b1-3)GlcNAc(b1-2)Man(a1-3)[GlcNAc(b1-4)][Gal(b1-3)GlcNAc(b1-2)Man(a1-6)]Man(b1-4)GlcNAc(b1-4)GlcNAc
Summary of the method: as §1

[9] = molecular target: Gal(b1-3)GlcNAc(b1-2)[Gal(b1-3)GlcNAc(b1-6)]Man(a1-6)[Gal(b1-3)GlcNAc(b1-2)Man(a1-3)]Man(b1-4)GlcNAc(b1-4)GlcNAc
Summary of the method: as §1

[10] = molecular target: Gal(b1-3)GlcNAc(b1-3)Gal(b1-3)GlcNAc
Summary of the method: as §1

[11] = molecular target: Gal(b1-3)GlcNAc(b1-3)Gal(b1-4)Glc
Summary of the method: as §1

[12] = molecular target: Gal(b1-3)GlcNAc(b1-3)Gal(b1-4)GlcNAc
Summary of the method: as §1

[13] = molecular target: Gal(b1-3)GlcNAc(b1-3)Gal(b1-4)GlcNAc(b1-2)Man(a1-3)[Gal(b1-3)GlcNAc(b1-3)Gal(b1-4)GlcNAc(b1-2)Man(a1-6)]Man(b1-4)GlcNAc(b1-4)GlcNAc
Summary of the method: as §1

[14] = molecular target: Gal(b1-3)GlcNAc(b1-3)Gal(b1-4)GlcNAc(b1-2)[Gal(b1-3)GlcNAc(b1-3)Gal(b1-4)GlcNAc(b1-6)]Man(a1-6)[Gal(b1-3)GlcNAc(b1-3)Gal(b1-4)GlcNAc(b1-2)Man(a1-3)]Man(b1-4)GlcNAc(b1-4)[Fuc(a1-6)]GlcNAc
Summary of the method: as §1

[15] = molecular target: Gal(b1-3)GlcNAc(b1-3)Gal(b1-4)GlcNAc(b1-3)Gal(b1-4)GlcNAc(b1-2)[Gal(b1-3)GlcNAc(b1-3)Gal(b1-4)GlcNAc(b1-3)Gal(b1-4)GlcNAc(b1-6)]Man(a1-6)[Gal(b1-3)GlcNAc(b1-3)Gal(b1-4)GlcNAc(b1-3)Gal(b1-4)GlcNAc(b1-2)Man(a1-3)]Man(b1-4)GlcNAc(b1-4)[Fuc(a1-6)]GlcNAc
Summary of the method: as §1

[16] = molecular target: Gal(b1-3)GlcNAc(b1-3)Gal(b1-4)GlcNAc(b1-6)[Gal(b1-3)GlcNAc(b1-3)]Gal(b1-4)Glc
Summary of the method: as §1

[17] = molecular target: Gal(b1-3)GlcNAc(b1-3)Gal(b1-4)[Fuc(a1-3)]GlcNAc
Summary of the method: as §1

[18] = molecular target: Gal(b1-3)GlcNAc(b1-3)Gal(b1-4)[Fuc(a1-3)]GlcNAc(b1-6)[Gal(b1-3)GlcNAc(b1-3)]Gal(b1-4)Glc
Summary of the method: as §1

[19] = molecular target: Gal(b1-3)GlcNAc(b1-3)GalNAc
Summary of the method: as §1

[20] = molecular target: Gal(b1-3)GlcNAc(b1-6)Gal(b1-4)GlcNAc
Summary of the method: as §1

[21] = molecular target: Gal(b1-3)GlcNAc(b1-6)GalNAc
Summary of the method: as §1

[22] = molecular target: Gal(b1-3)GlcNAc(b1-6)[Gal(b1-3)]GalNAc
Summary of the method: as §1

Gal(b1-3)GlcNAc6S = molecular target: Gal(b1-3)GlcNAc6S
Summary of the method: as §1

[23] = molecular target: Gal(b1-3)[Fuc(a1-4)]GlcNAc
Summary of the method: as §1

[24] = molecular target: Gal(b1-3)[Fuc(a1-4)]GlcNAc(b1-2)Man
Summary of the method: as §1

[25] = molecular target: Gal(b1-3)[Fuc(a1-4)]GlcNAc(b1-2)Man(a1-3)[Gal(b1-3)[Fuc(a1-4)]GlcNAc(b1-2)Man(a1-6)]Man(b1-4)GlcNAc(b1-4)[Fuc(a1-6)]GlcNAc
Summary of the method: as §1

[26] = molecular target: Gal(b1-3)[Fuc(a1-4)]GlcNAc(b1-3)Gal(b1-3)[Fuc(a1-4)]GlcNAc
Summary of the method: as §1

[27] = molecular target: Gal(b1-3)[Fuc(a1-4)]GlcNAc(b1-3)Gal(b1-4)[Fuc(a1-3)]GlcNAc
Summary of the method: as §1

[28] = molecular target: Gal(b1-3)[Fuc(a1-4)]GlcNAc(b1-6)GalNAc
Summary of the method: as §1

[29] = molecular target: Gal(b1-3)[GlcNAc(b1-6)]GalNAc
Summary of the method: as §1

[30] = molecular target: Gal(b1-3)[Neu5Ac(a2-6)]GalNAc
Summary of the method: as §1

[31] = molecular target: Gal(b1-3)[Neu5Ac(a2-6)]GlcNAc(b1-4)Gal(b1-4)Glc
Summary of the method: as §1

[32] = molecular target: Gal(b1-3)[Neu5Ac(b2-6)]GalNAc
Summary of the method: as §1

Gal(b1-4)Gal = molecular target: Gal(b1-4)Gal
Summary of the method: as §1

[33] = molecular target: Gal(b1-4)GalNAc(a1-3)[Fuc(a1-2)]Gal(b1-4)GlcNAc
Summary of the method: as §1

B1: Gal 8 (Mus musculus), Q9JL15 (protein)
chain: MGGSHHHHHHGMASMLSLNNLQNIIYNPIIPYVGTITEQLKPGSLIVIRGHVPKDSERFQVDFQLGNSLKPRADVAFHFNPHFKRSSCIVCNTLTQEKWGWEEITYDMPFRKEKSFEIVFMVLKNKFQVAVNGRHVLLYAHRISPEQIDTVGIYGKVNIHSIGFRFSSASALPHTLGDLQSMETSALGLTQINRENIQKPGKLQLSLPFEARLNASMGPGRTVVIKGEVNTNARSFNVDLVAGKTRDIALHLNPHLNVKAFVRNSFLQDAWGEEERNITCFPFSSGMYFEMIIYCDVREFKVAINGVHSLEYKHRFKDLSSIDTLSVDGDIRLLDVRSW
glycan array binding signal (z-score) (Gal(b1-3)GalNAc(b1-3)Gal): -0.265
glycan array binding signal (z-score) [1]: -0.235
glycan array binding signal (z-score) [2]: -0.226
glycan array binding signal (z-score) [3]: -0.26
glycan array binding signal (z-score) (Gal(b1-3)GlcNAc): -0.27
glycan array binding signal (z-score) [4]: -0.269
glycan array binding signal (z-score) [5]: -0.273
glycan array binding signal (z-score) (Gal(b1-3)GlcNAc(b1-2)Man): -0.136
glycan array binding signal (z-score) [6]: -0.258
glycan array binding signal (z-score) [7]: -0.11
glycan array binding signal (z-score) [8]: -0.27
glycan array binding signal (z-score) [9]: -0.332
glycan array binding signal (z-score) [10]: -0.254
glycan array binding signal (z-score) [11]: -0.263
glycan array binding signal (z-score) [12]: -0.268
glycan array binding signal (z-score) [13]: -0.237
glycan array binding signal (z-score) [14]: -0.036
glycan array binding signal (z-score) [15]: -0.109
glycan array binding signal (z-score) [16]: -0.283
glycan array binding signal (z-score) [17]: -0.26
glycan array binding signal (z-score) [18]: -0.278
glycan array binding signal (z-score) [19]: -0.305
glycan array binding signal (z-score) [20]: -0.271
glycan array binding signal (z-score) [21]: -0.274
glycan array binding signal (z-score) [22]: -0.218
glycan array binding signal (z-score) (Gal(b1-3)GlcNAc6S): -0.273
glycan array binding signal (z-score) [23]: -0.027
glycan array binding signal (z-score) [24]: -0.226
glycan array binding signal (z-score) [25]: -0.256
glycan array binding signal (z-score) [26]: -0.242
glycan array binding signal (z-score) [27]: -0.277
glycan array binding signal (z-score) [28]: -0.243
glycan array binding signal (z-score) [29]: -0.245
glycan array binding signal (z-score) [30]: -0.248
glycan array binding signal (z-score) [31]: -0.272
glycan array binding signal (z-score) [32]: -0.258
glycan array binding signal (z-score) (Gal(b1-4)Gal): -0.238
glycan array binding signal (z-score) [33]: -0.274
